Results as given in the supplement of paper PMC4604168 (melanoma cell lines).
The list shows a part of the results. Most values come without repeats; read them as rough.

test system: G361; test: cell count relative to DMSO control; melanoma cells; higher = more viable cells; details: library dose: low library concentration; 72 h
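Note: cell number obtained by counting DAPI-stained nuclei in high-throughput microscope images with image analysis software, screen run in 1,536-well plates.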

Compound	cell count [%]
Cc1cc(Nc2cc(N3CCN(C)CC3)nc(/C=C/c3ccccc3)n2)n[nH]1 + Nc1ccn([C@@H]2O[C@H](CO)[C@@H](O)C2(F)F)c(=O)n1 [gemcitabine] (first compound 0.04 µM, partner dose 0.0004 µM)	98.8
CC(C)C[C@H](NC(=O)[C@H](Cc1ccccc1)NC(=O)c1cnccn1)B(O)O [Bortezomib] + Cc1nc(Nc2ncc(C(=O)Nc3c(C)cccc3Cl)s2)cc(N2CCN(CCO)CC2)n1 [dasatanib] (first compound 0.001 µM, partner dose 0.004 µM)	3.15
COc1ccc(C2=N[C@@H](c3ccc(Cl)cc3)[C@@H](c3ccc(Cl)cc3)N2C(=O)N2CCNC(=O)C2)c(OC(C)C)c1 [Nutlin-3] + C[C@@H](Oc1cc(-c2cnn(C3CCNCC3)c2)cnc1N)c1c(Cl)ccc(F)c1Cl [Crizotinib] (first compound 0.1 µM, partner dose 0.2 µM)	80.6
COc1ccc(C2=N[C@@H](c3ccc(Cl)cc3)[C@@H](c3ccc(Cl)cc3)N2C(=O)N2CCNC(=O)C2)c(OC(C)C)c1 [Nutlin-3] + OCc1c[nH]c2ccccc12 [Indole-3-carbinol] (first compound 0.1 µM, partner dose 0.8 µM)	99.2
COc1ccc(C2=N[C@@H](c3ccc(Cl)cc3)[C@@H](c3ccc(Cl)cc3)N2C(=O)N2CCNC(=O)C2)c(OC(C)C)c1 [Nutlin-3] + CS(=O)(=O)CCNCc1ccc(-c2ccc3ncnc(Nc4ccc(OCc5cccc(F)c5)c(Cl)c4)c3c2)o1 [lapatinib] (first compound 0.1 µM, partner dose 0.8 µM)	110
Cc1cn(-c2cc(NC(=O)c3ccc(C)c(Nc4nccc(-c5cccnc5)n4)c3)cc(C(F)(F)F)c2)cn1 [nilotinib] + CC(=O)c1c(C)c2cnc(Nc3ccc(N4CCNCC4)cn3)nc2n(C2CCCC2)c1=O [palbociclib] (first compound 0.2 µM, partner dose 0.04 µM)	86.1
Cc1cn(-c2cc(NC(=O)c3ccc(C)c(Nc4nccc(-c5cccnc5)n4)c3)cc(C(F)(F)F)c2)cn1 [nilotinib] + CCN(CC)CCNC(=O)c1c(C)[nH]c(/C=C2\C(=O)Nc3ccc(F)cc32)c1C [sunitinib] (first compound 0.2 µM, partner dose 0.4 µM)	101
Cc1cc(Nc2cc(N3CCN(C)CC3)nc(/C=C/c3ccccc3)n2)n[nH]1 + COc1ccc(Cl)c(Nc2nc3ccccc3nc2NS(=O)(=O)c2cccc(NC(=O)C(C)(C)N)c2)c1 [XL147] (first compound 0.04 µM, partner dose 0.8 µM)	89.6
COc1ccc(C2=N[C@@H](c3ccc(Cl)cc3)[C@@H](c3ccc(Cl)cc3)N2C(=O)N2CCNC(=O)C2)c(OC(C)C)c1 [Nutlin-3] + NC1(c2ccc(-c3nc4ccn5c(=O)[nH]nc5c4cc3-c3ccccc3)cc2)CCC1 [MK2206] (first compound 0.1 µM, partner dose 0.4 µM)	114
CC(C)C[C@H](NC(=O)[C@H](Cc1ccccc1)NC(=O)c1cnccn1)B(O)O [Bortezomib] + CS(=O)(=O)CCNCc1ccc(-c2ccc3ncnc(Nc4ccc(OCc5cccc(F)c5)c(Cl)c4)c3c2)o1 [lapatinib] (first compound 0.001 µM, partner dose 0.8 µM)	5.78
CC(C)C[C@H](NC(=O)[C@H](Cc1ccccc1)NC(=O)c1cnccn1)B(O)O [Bortezomib] + C[C@]1(c2nc3c(C(N)=O)cccc3[nH]2)CCCN1 [Veliparib] (first compound 0.001 µM, partner dose 1.4 µM)	14.7
Cc1cc(Nc2cc(N3CCN(C)CC3)nc(/C=C/c3ccccc3)n2)n[nH]1 + COCC[n+]1c2c(n(Cc3cnccn3)c1C)C(=O)c1ccccc1C2=O [YM155] (first compound 0.04 µM, partner dose 0.0004 µM)	96
Cc1cn(-c2cc(NC(=O)c3ccc(C)c(Nc4nccc(-c5cccnc5)n4)c3)cc(C(F)(F)F)c2)cn1 [nilotinib] + CC(C)C[C@H](NC(=O)[C@H](Cc1ccccc1)NC(=O)c1cnccn1)B(O)O [Bortezomib] (first compound 0.2 µM, partner dose 0.001 µM)	74.1
Cn1c(=O)n(-c2ccc(C(C)(C)C#N)cc2)c2c3cc(-c4cnc5ccccc5c4)ccc3ncc21 + CN1CCN(c2ccc3nc(-c4c(N)c5c(F)cccc5[nH]c4=O)[nH]c3c2)CC1 [Dovitinib] (first compound 0.004 µM, partner dose 0.1 µM)	110
CC(C)C[C@H](NC(=O)[C@H](Cc1ccccc1)NC(=O)c1cnccn1)B(O)O [Bortezomib] + CCCS(=O)(=O)Nc1ccc(F)c(C(=O)c2c[nH]c3ncc(Cl)cc23)c1F [PLX4720] (first compound 0.001 µM, partner dose 0.08 µM)	4.35
Cc1cn(-c2cc(NC(=O)c3ccc(C)c(Nc4nccc(-c5cccnc5)n4)c3)cc(C(F)(F)F)c2)cn1 [nilotinib] + OCc1c[nH]c2ccccc12 [Indole-3-carbinol] (first compound 0.2 µM, partner dose 0.8 µM)	119
CC(C)C[C@H](NC(=O)[C@H](Cc1ccccc1)NC(=O)c1cnccn1)B(O)O [Bortezomib] + Cn1c(Nc2ccc(C(F)(F)F)cc2)nc2cc(Oc3ccnc(-c4ncc(C(F)(F)F)[nH]4)c3)ccc21 [CHIR265] (first compound 0.001 µM, partner dose 0.08 µM)	3.72
Cc1cc(Nc2cc(N3CCN(C)CC3)nc(/C=C/c3ccccc3)n2)n[nH]1 + Cn1nnc2c(C(N)=O)ncn2c1=O [temozolomide] (first compound 0.04 µM, partner dose 2 µM)	101
Cc1cn(-c2cc(NC(=O)c3ccc(C)c(Nc4nccc(-c5cccnc5)n4)c3)cc(C(F)(F)F)c2)cn1 [nilotinib] + Cn1nnc2c(C(N)=O)ncn2c1=O [temozolomide] (first compound 0.2 µM, partner dose 2 µM)	94
